Source: PubChem BioAssay AID463173 (ICCB-Longwood Screening Facility, Harvard Medical School, 2010)
The whole screen tested about 52,000 compounds, of which about 4,300 (8.3%) were called active. No stated cut-off is given here; in the data, active means survival mostly below about 52% (no sharp cut-off); inactive means mostly above about 56%. Some of the results follow.

Tested on: DeltatarO mutant
Test: S. aureus survival, RN4220 and DeltatarO strains – OD600, teichoic acid synthesis inhibitors, primary screen (AID 463173)
Settings: S. aureus RN4220 wild type/DeltatarO growth, OD600, 18 h, stronger effect = lower value, screened at 18.75 µg/mL (by protocol)

| SMILES | survival |
| --- | --- |
| Cc1cccc(CNC(=O)C2CCN(S(=O)(=O)c3cccc4nonc34)CC2)c1 | inactive: 83% |
| Cc1ccc2[nH]cc(NC(=O)NCCO)c(=O)c2c1 | inactive: 88% |
| Cc1ccc(C)c(NC(=O)C2CCCN2S(=O)(=O)c2ccc3c(c2)CCCC(=O)N3)c1 (stereo unspecified) | inactive: 87% |
| CCC1=Nc2cc(C(=O)N3CCC(C)CC3)ccc2Sc2ccc(C)cc21 | active: -4% |
| COc1ccc(-c2noc(CNC(=O)c3ccc(OC)cc3OC)n2)cc1 | active: 62% |
| O=S(=O)(NCc1ccco1)c1ccc(S(=O)(=O)N2CCCCC2)cc1 | inactive: 78% |
| COCCNC(=O)c1sc2nc3n(c(=O)c2c1C)CCC3 | inactive: 86% |
| COc1ccc(N2CC(c3nc(-c4ccccc4C)no3)CC2=O)cc1Cl (stereo unspecified) | inactive: 83% |
| CCc1ccc(NS(=O)(=O)c2ccc3[nH]cc(C(=O)NCCc4ccccc4)c(=O)c3c2)cc1 | inactive: 87% |
| CCOC(=O)c1cccc(NC(=O)Cn2cnc3nc4c(cc3c2=O)CCCC4)c1 | inactive: 94% |
| CCN(CC)CCCNC(=O)c1ccc2c(c1)NC(=O)C(CS(=O)(=O)Cc1ccc(F)cc1Cl)N2 (stereo unspecified) | inactive: 134% |
| C=Cn1c(C)c(C(C#N)=C(C#N)C#N)c2c1CCCC2 | active: 2% |
| COc1ccc(N2CCN(C(=O)c3cc4c(s3)-c3c(C)cccc3OC4)CC2)cc1 | inactive: 94% |
| Cc1cc(C)cc(NC(=O)C2CCCN(c3nnc(-n4c(C)ccc4C)s3)C2)c1 (stereo unspecified) | inactive: 85% |
| CCCc1ccc(OC(=O)c2sc3ncn(Cc4cccc(F)c4)c(=O)c3c2C)cc1 | inactive: 89% |
| COc1ccc(NC(=O)Cn2c(SCc3c(F)cccc3Cl)nc3ccncc32)cc1OC | inactive: 91% |
| COCCn1c(SCC(=O)Nc2ccc(Br)cc2)nc2c([nH]c3ccccc32)c1=O | inactive: 83% |
| Cc1ccc(-c2onc(C)c2C)cc1S(=O)(=O)N1CCc2ccccc21 | inactive: 86% |
| CS(=O)(=O)N(CC(=O)O)c1ccc(Cl)cc1 | inactive: 105% |
| Nc1cccc(Cl)c1N1CCOCC1 | inactive: 112% |
| Cc1cccc(CCNC(=O)CCc2c(C)nc3c(-c4ccc(F)cc4)c(C)nn3c2C)c1 | inactive: 73% |
| CN1CCN(c2ccc(-c3nc(-c4ccccc4)no3)cc2[N+](=O)[O-])CC1 | active: 41% |
| COC(=O)c1ccc(NC(=O)C(c2ccccc2)N2Cc3ccccc3C2=O)cc1 (stereo unspecified) | inactive: 72% |

| SMILES | survival |
| --- | --- |
| Cc1nc(-c2ccc(Cl)cc2)sc1CCNC(=O)C(=O)Nc1ccccc1C#N | inactive: 80% |
| COc1ccc(NC(=O)Cn2ncc3c4ccccc4n(Cc4ccccc4)c3c2=O)cc1OC | inactive: 87% |
| COc1cc(NS(=O)(=O)c2ccc3c(c2)OCC(C(=O)N2CCCC2)O3)cc(OC)c1 (stereo unspecified) | inactive: 78% |
| COc1ccccc1-c1ncnn1-c1sc2c(c1C#N)CCCCC2 | active: -2% |
| Cc1ccc(NC(=O)Cn2nc(-c3ccc(Cl)cc3)c3ccccc3c2=O)cc1 | active: 38% |
| CCN(CC)c1ccc(NC(=O)C2CCCN(S(=O)(=O)c3ccc4c(c3)oc(=O)n4C)C2)c(C)c1 (stereo unspecified) | inactive: 113% |
| Nc1ccccc1-n1ccnc1 | inactive: 71% |
| COc1ccccc1CSc1nc2n(n1)C(c1ccccc1)C(C(=O)Nc1ccc(C)cc1)=C(C)N2 (stereo unspecified) | inactive: 65% |
| CCOC(=O)c1c(S(=O)(=O)N2CCN(c3cc(Cl)ccc3C)CC2)c(C)n(C)c1C | inactive: 123% |
| Cc1ccc(NC(=O)C2CCCN(S(=O)(=O)c3ccc(C)cc3)C2)cc1 (stereo unspecified) | inactive: 71% |
| CCOc1ccc(N(CC)C(=O)c2cc3c(=O)oc4ccccc4c3s2)cc1 | active: 38% |
| CCOc1ccc(CN2CCN(S(=O)(=O)c3ccc(Cl)cc3)CC2)cc1 | active: 27% |
| O=C(NC1CCN(C(=O)NCc2ccccc2)CC1)c1ccco1 | inactive: 84% |
| O=c1oc2c(F)cc(F)cc2cc1S(=O)(=O)c1ccc(F)cc1 | inactive: 60% |
| Cc1ccc(Cc2nc3ccccc3nc2SCC(=O)N2CCCCC2)cc1 | inactive: 78% |
| Cc1nc(C)c(CCNS(=O)(=O)c2ccc(C)c(C)c2)s1 | inactive: 97% |
| CCOc1ccccc1NC(=O)c1c(NCc2ccc(C)o2)sc2c1CCCCC2 | inactive: 95% |
| CC(C)C(=O)CC(c1ccccc1)C1C(=O)NC(=O)NC1=O (stereo unspecified) | inactive: 71% |
| COC(=O)c1ccccc1NC(=O)CCCn1nc(C)c2sc3ccccc3c2c1=O | inactive: 81% |
| COc1cccc(NC(=O)c2oc3ccccc3c2NC(=O)COc2ccccc2C)c1 | inactive: 122% |
| CC1=C(C(=O)Nc2ccc(C)cc2C)C(CC(C)C)n2nc(SCc3ccccc3C)nc2N1 (stereo unspecified) | inactive: 93% |
| Cc1oc(-c2ccccc2F)nc1CN1CCC(C(=O)NCCc2ccc(Cl)cc2)CC1 | inactive: 71% |
| O=C(Cn1cc(S(=O)(=O)c2ccc(F)cc2)c(=O)c2cc3c(cc21)OCO3)Nc1ccccc1 | inactive: 68% |

| SMILES | survival |
| --- | --- |
| Cc1ccn2c(=O)c(C(=O)Nc3ccc(F)c(C(F)(F)F)c3)cnc2c1 | inactive: 94% |
| N#CCC(=O)Nc1nccs1 | inactive: 89% |
| Cc1cccc(NC(=O)C(=O)NCC(c2cccnc2)N2CCc3ccccc32)c1C (stereo unspecified) | inactive: 53% |
| CCOC(=O)c1cc(-c2ccccc2)n(CCC(=O)Nc2ccc(OC)c(Cl)c2)c1C | inactive: 92% |
| O=C(O)C12CC3CC(CC(S)(C3)C1)C2 | inactive: 59% |
| Cc1ccccc1-c1nc2c(c(SCc3cccc(Cl)c3)n1)Cc1c(CO)cnc(C)c1O2 | inactive: 60% |
| Cc1cc(NC(=O)CN(C)S(=O)(=O)c2ccc3c(c2)CCCC(=O)N3)ccc1Br | inactive: 81% |
| CCc1ccc(NC(=O)Cn2c(=O)n(CCCC(=O)NCc3ccccc3OC)c(=O)c3ccccc32)cc1 | inactive: 135% |
| COc1cc(-c2nc(Cn3nnc(C(=O)Nc4ccccc4C)c3C)c(C)o2)cc(OC)c1OC | inactive: 58% |
| O=c1c2sc3ccccc3c2n(Cc2ccc(F)cc2)c(=O)n1Cc1ccccc1 | inactive: 137% |
| CCc1cccc(CC)c1NC(=O)CCS(=O)(=O)c1ccc(Br)cc1 | inactive: 117% |
| CCOc1ccc(-c2cc(C(=O)NCc3ccc(OCC)c(OC)c3)[nH]n2)cc1 | inactive: 85% |
| Cc1cc(C)n2nc(SCC(=O)Nc3ccc(O)cc3)nc2n1 | inactive: 67% |
| Cc1ccc(NC(=O)CSc2ncccc2C(=O)Oc2ccccc2Cl)cc1Cl | inactive: 94% |
| COc1ccc2[nH]cc(CCNC(=O)Nc3c(C)cccc3C)c2c1 | inactive: 99% |
| N=c1c2c3c(sc2ncn1CCCn1ccnc1)CCCCC3 | inactive: 116% |
| CCCCC(=O)Nc1cc(-c2nc3ccccc3o2)ccc1OC | active: 7% |
| CCOc1ccc(CC(=O)NCCS(=O)(=O)N2CCN(c3ccccc3OC)CC2)cc1 | inactive: 84% |
| CCOC(=O)c1noc2ncn(CC(=O)Nc3ccc(OC)c(Cl)c3)c(=O)c12 | inactive: 77% |
| COc1ccc(C)cc1NC(=O)c1ccc2c(c1)N(Cc1cccc(Cl)c1)C(=O)c1ccccc1S2=O (stereo unspecified) | inactive: 92% |
| Cc1ccc(C)c(NC(=O)c2ccc(=O)n(Cc3ccc(F)cc3)c2)c1 | inactive: 94% |
| Clc1cccc(N2CCN(c3nc4ccccc4c4nc(-c5cccnc5)nn34)CC2)c1 | inactive: 82% |
| CC1Oc2ccccc2N(CC(=O)NC2CC2)C1=O (stereo unspecified) | inactive: 75% |

| SMILES | survival |
| --- | --- |
| Cc1ccc(-c2nn(-c3cccc([N+](=O)[O-])c3)c3c2cnc2ccc(F)cc23)cc1 | inactive: 75% |
| Cc1cccc(Nc2nc(Nc3cccc(C)c3)nc(N3CCOCC3)n2)c1 | active: 1% |
| Cc1cc2c(n1-c1ccc(C(=O)NCC(C)c3ccccc3)cc1)CCCC2 (stereo unspecified) | inactive: 84% |
| Cc1sc(C2C(C#N)=C(N)N(c3cccc(Cl)c3)C3=C2C(=O)CCC3)cc1CN1CCOCC1 (stereo unspecified) | inactive: 85% |
| Cc1ccc(CNC(=O)c2cc(S(=O)(=O)N3CCCC(C)C3)cn2C)cc1 (stereo unspecified) | inactive: 94% |
| O=S(=O)(NCc1ccc(F)cc1)c1ccc2[nH]c3c(c2c1)CCCCC3 | inactive: 61% |
| CC(C)CCNC(=O)c1ccc(Cn2c(=O)c3cccn3c3cccnc32)cc1 | inactive: 64% |
| C#CCSc1nc2sc3c(c2c(=O)n1-c1cccc(OC)c1)CCN(C(C)=O)C3 | inactive: 28% |
| Cc1ccc(S(=O)(=O)Nc2ccc(-c3ccc(N4CCCCCC4)nn3)cc2)cc1C | inactive: 119% |
| C=CCNC(=O)c1c(O)c2cccc3c2n(c1=O)CCC3 | inactive: 102% |
| CCOC(=O)c1ccc(-c2ccc(/C=C(\C#N)C(=O)Nc3c(C)cccc3Cl)o2)cc1 | inactive: 61% |
| COc1cc(Cl)c(NC(=O)c2cc(S(=O)(=O)N3CCOCC3)cn2C)c(OC)c1 | inactive: 76% |
| CCOC(=O)C(C)ON1C(=O)c2ccccc2C1=O (stereo unspecified) | inactive: 86% |
| CC(C(=O)O)N1C(=O)NC2NC(=O)NC21 (stereo unspecified) | active: 54% |
| CCc1nn2c(-c3ccco3)ccnc2c1-c1ccc(F)cc1 | inactive: 81% |
| COc1ccc(-c2n[nH]c3c2C(c2ccc(Cl)cc2Cl)NC3=O)cc1 (stereo unspecified) | active: -12% |
| COc1ccc(-n2c(=O)c3c(c4cc(OC)ccc4n3C)n(CC(=O)NCC3CCCO3)c2=O)cc1 (stereo unspecified) | inactive: 62% |
| CCN(CCCNC(=O)c1ccc(Sc2ccc(C)cc2)c(NC(C)=O)c1)c1cccc(C)c1 | inactive: 80% |
| CCOc1cccc(C(=O)Nc2ccc3oc(-c4ccc(C(C)(C)C)cc4)nc3c2)c1 | active: 46% |
| COc1ccc(NC(=O)Cn2c(=O)n(-c3cccc(C)c3)c(=O)c3c2c2cc(C)ccc2n3C)cc1OC | inactive: 79% |
| Cc1ccc2oc(-c3ccc(C)c(NC(=O)c4ccc5c(c4)OCCO5)c3)nc2c1 | inactive: 48% |
| CC(CCO)Nc1nc2c(c(=O)n(C)c(=O)n2C)n1Cc1ccc(Br)cc1 (stereo unspecified) | inactive: 140% |
